Source: publication PMC4336329 (PLoS ONE, 2015)
The campaign covered roughly 310,000 compounds. About 2,200 (0.71%) showed an effect of 50% or more. The effect is printed as a negative number. Some of the results follow.

target: human ether-à-go-go-related gene (hERG) potassium channel (human, UniProt Q12809); assay: primary screen, population patch clamp on CHO cells stably expressing hERG
Sequence (Q12809 whole entry, looked up): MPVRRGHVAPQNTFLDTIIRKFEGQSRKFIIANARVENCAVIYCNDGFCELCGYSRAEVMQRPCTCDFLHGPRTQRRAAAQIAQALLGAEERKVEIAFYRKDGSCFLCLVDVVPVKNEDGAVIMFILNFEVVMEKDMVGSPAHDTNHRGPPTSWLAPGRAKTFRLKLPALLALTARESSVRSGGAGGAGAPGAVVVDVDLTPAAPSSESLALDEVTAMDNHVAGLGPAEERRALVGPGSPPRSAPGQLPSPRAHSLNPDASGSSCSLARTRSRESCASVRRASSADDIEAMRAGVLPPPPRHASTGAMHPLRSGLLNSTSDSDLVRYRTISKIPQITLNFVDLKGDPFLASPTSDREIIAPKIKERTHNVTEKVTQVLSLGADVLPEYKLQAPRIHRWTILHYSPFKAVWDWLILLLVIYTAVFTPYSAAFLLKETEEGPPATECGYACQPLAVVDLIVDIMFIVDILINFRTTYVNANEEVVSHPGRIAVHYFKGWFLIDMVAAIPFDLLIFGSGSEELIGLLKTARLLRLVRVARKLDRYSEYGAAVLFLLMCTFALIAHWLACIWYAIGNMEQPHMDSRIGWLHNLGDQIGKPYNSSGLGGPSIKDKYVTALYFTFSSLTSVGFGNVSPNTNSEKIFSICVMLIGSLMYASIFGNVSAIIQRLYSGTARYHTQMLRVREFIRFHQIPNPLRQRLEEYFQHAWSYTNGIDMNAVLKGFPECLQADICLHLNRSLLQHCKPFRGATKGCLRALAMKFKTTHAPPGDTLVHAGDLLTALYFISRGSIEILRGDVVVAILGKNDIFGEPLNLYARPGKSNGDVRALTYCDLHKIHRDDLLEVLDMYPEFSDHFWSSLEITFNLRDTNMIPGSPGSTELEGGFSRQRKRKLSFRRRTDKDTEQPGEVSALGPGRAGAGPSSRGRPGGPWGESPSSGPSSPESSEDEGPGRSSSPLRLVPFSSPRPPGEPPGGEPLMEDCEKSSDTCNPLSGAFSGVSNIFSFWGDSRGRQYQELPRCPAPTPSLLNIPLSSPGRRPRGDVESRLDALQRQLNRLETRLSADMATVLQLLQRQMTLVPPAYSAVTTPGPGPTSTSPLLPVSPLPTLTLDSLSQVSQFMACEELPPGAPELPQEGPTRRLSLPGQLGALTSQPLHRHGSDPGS

SMILES | hERG current change (%, negative = inhibition) at 1uM
CCC(=O)Oc1ccc(C2NC(=O)c3ccccc3O2)cc1OC (centres unmarked) | 13.6%
COc1ccc2[nH]c(=O)c(CN(CCc3ccccc3)C(C)=O)cc2c1 | 7.58%
COc1cc(Cl)c(S(=O)(=O)N2CCN(Cc3ccc4c(c3)OCO4)CC2)cc1Cl | 6.85%
CCOC(=O)C1CCN(Cc2cc(=O)oc3cc(C)c(Cl)cc23)CC1 | 17.6%
CCOc1ccc(OCC)c(NC(=O)C2CCN(S(=O)(=O)c3cccc4nonc34)CC2)c1 | 13.3%
CC(C)n1c(N2CCCC2)nc2c1c(=O)[nH]c(=O)n2C | 17.2%
CNC(=O)C1CC(=O)N(c2ccc(OCC(=O)N3CCCC3)cc2)C1 (centres unmarked) | 16.2%
Cc1ccc(Cn2c(C)c3cnn(CC(=O)N4CCC5(CC4)OCCO5)c(=O)c3c2C)cc1 | 8.7%
O=C(O)CC(C(=O)O)n1nc(-c2ccccc2)cc1-c1ccccc1 (centres unmarked) | 10.5%
CN(CCN1CCOCC1)Cc1nc(-c2ccc3c(c2)OCO3)no1 | 9.92%
COC(=O)c1cccc(N(C(=O)c2cnccn2)C(C(=O)NC2CCCCC2)c2cn(C)nc2C)c1 (centres unmarked) | -1.2%
COc1ccc(C)cc1Nc1n[n+](-c2ccccc2)c(-c2cccc(Cl)c2Cl)s1.[Cl-] | 10.2%
Cc1cccc2cc(CN(Cc3cccnc3)C(=S)NCCCN(C)C)c(=O)[nH]c12 | 13.9%
O=CN/C=C/c1cc(O)ccc1O | -11.2%
NCCc1c(C(=O)O)[nH]c2ccc([N+](=O)[O-])cc12 | 12.9%
COCCNC(=O)C(c1ccccc1)N(C(=O)Cn1nnc2ccccc21)c1cccnc1 (centres unmarked) | 17.3%
O=C(Cn1c(C(=O)NCC2CCCO2)cc2sccc21)c1ccccc1 (centres unmarked) | -4.85%
CCCCCCSc1cccc(-c2nc3ccc(C)cn3c2NC2CCCCC2)c1.O=C(O)C(F)(F)F | 11.3%
c1cncc(-c2nc(NCCCN3CCOCC3)c3c4c(sc3n2)CCC4)c1 | 5.89%
COc1ccc(-c2cc(C(=O)Nc3ccc(O)cc3)c3ccccc3n2)cc1OC | 3.78%
COc1ccc(NC(=O)c2c3c(nc4ccccc24)CCC3)cc1S(=O)(=O)N1CCOCC1 | 4.33%
O=c1c2c3c(sc2n(CCN2CCCC2)c(=O)n1Cc1ccccc1)CCCCC3 | 9.28%
O=C(NNS(=O)(=O)c1ccccc1)c1cc2cc3ccccc3nc2s1 | 14.6%
